Paper PMC6919601, “Identification of Plasmodium dipeptidyl aminopeptidase allosteric inhibitors by high throughput screening” (PLoS ONE, 2019)
Values joined by “and” are separate entries in the source; they are usually repeats but may differ in a detail not shown here. Equal values may be shown once. The whole screen tested about 110,000 compounds, of which about 230 (0.21%) showed an effect of 50% or more. The list shows a part of the results.

molecular target: DPAP1 (Plasmodium falciparum, UniProt Q8IIJ9); assay: primary screen, percent inhibition; read by cleavage of a fluorogenic dipeptide substrate; higher = more effect of the substance; design: species or system P. falciparum D10 trophozoite lysates; single well
Sequence (Q8IIJ9 whole entry, looked up): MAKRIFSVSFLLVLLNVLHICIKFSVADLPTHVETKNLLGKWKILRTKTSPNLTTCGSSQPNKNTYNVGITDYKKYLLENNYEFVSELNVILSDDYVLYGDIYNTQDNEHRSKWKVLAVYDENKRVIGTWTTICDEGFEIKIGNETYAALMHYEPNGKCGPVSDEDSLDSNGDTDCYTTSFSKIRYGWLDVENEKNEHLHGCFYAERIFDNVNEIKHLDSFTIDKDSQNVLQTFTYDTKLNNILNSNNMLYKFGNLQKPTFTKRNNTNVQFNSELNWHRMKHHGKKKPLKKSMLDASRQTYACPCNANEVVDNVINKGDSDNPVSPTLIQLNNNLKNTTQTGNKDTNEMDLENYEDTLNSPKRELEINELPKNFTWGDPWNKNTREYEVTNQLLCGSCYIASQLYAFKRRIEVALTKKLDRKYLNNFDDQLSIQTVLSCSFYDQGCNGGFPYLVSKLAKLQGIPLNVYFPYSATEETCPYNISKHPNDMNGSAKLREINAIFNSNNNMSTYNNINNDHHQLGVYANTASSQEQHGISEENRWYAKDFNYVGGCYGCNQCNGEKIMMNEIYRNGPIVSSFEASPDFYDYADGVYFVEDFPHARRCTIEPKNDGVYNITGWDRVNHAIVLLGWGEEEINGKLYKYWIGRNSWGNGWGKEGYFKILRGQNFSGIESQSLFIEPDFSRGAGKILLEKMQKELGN
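Note: 30 min substrate incubation versus DMSO and 10 µM JCP410 controls.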

| SMILES | % Inhibition @ 10 uM |
| --- | --- |
| CC1CCc2cccc3c(O)cc(=O)n1c23 (stereo not shown) | -0.25% |
| COc1ccc(-c2cc(C(=O)NC3CC3)c3ccccc3n2)cc1 | -9.73% |
| CCN(CC)c1ccc2c(N3CCCCC3)cc(=O)oc2c1 | -2.97% |
| CC(=O)N1c2ccc(N)cc2C(C)(c2ccccc2)CC1(C)C (stereo not shown) | 4.17% |
| Cc1ccc(C2=NN(CC(=O)NC3CCCCC3C)C(=O)CC2)cc1 (stereo not shown) | -4.83% |
| O=C1NC(=O)N(c2ccc(Cl)cc2)C(=O)/C1=C\Nc1ccc(C(=O)N2CCCCC2)cc1 | 5.89% |
| COc1ccc2[nH]c(-c3ccc(C#N)cc3)nc2c1 | 5.69% |
| CCc1nc2c(=O)oc3ccccc3c2n1CC | -1.68% |
| Cc1nc(N2CCCCC2)c2c(C)c(C(=O)N3CCN(c4ccccn4)CC3)sc2n1 | 1.2% |
| N#C/C(=C\c1c[nH]nc1-c1ccccc1)S(=O)(=O)c1ccc(Cl)cc1 | 3.54% |
| O=C(NC1CCN(Cc2ccccc2)CC1)C1CCN(c2nc3ccccc3n3cccc23)CC1 | -0.495% |
| Cc1ccc(-n2cnc3ncnc(-c4ccccc4)c32)cc1 | -3.49% |
| O=C(NCc1ccccc1Cl)C1CCCN(c2nc3ccsc3c(=O)s2)C1 (stereo not shown) | -2.74% |
| CC(=O)NS(=O)(=O)c1cccnc1Nc1cccc(Cl)c1 | 2.13% |
| CC1=C(C(=O)Nc2ccccc2C)C(c2ccc(Cl)cc2)n2ncnc2N1 (stereo not shown) | -3.41% |
| COc1cc(CN(C)CCN(C)C)cc(Br)c1O | 0.815% |
| Cc1ccc(S(=O)(=O)N(CCC(=O)O)Cc2ccccc2)cc1 | -1.99% |
| CCN(CC)CCNC(=O)C1CCN(c2ncnc3c2nc2n3CCCCC2)CC1 | 2.36% |
| CCN(CC)CCNC(=O)Cc1c(C)nc2c(-c3ccc(F)cc3)c(C)nn2c1C | -12.1% |
| CCN(Cc1ccccc1)C(=O)Cn1cc2c(n1)CCCCCC2 | 0.137% |
| CCCCc1ccc(NS(=O)(=O)c2ccc(F)cc2)cc1 | 3.95% |
| COc1ccc(C2C(C#N)=C(N)OC3=C2C(=O)CC(C)(C)C3)cc1COc1ccc(C)cc1 (stereo not shown) | 1.57% |

| SMILES | % Inhibition @ 10 uM |
| --- | --- |
| O=C1C(c2ccc(F)cc2)N(CCC2=CCCCC2)C(=O)CN1C1CCCCC1 (stereo not shown) | -3.94% |
| COc1ccc(Br)cc1CNC(=O)c1cc2sc(C)cc2n1C | -3.08% |
| CCOC(=O)N1CCc2c(sc3c2C(=O)NC(c2ccc(O)c(OC)c2)N3)C1 (stereo not shown) | 2.46% |
| OCCN1CCN(Cc2ccc(F)cc2)CC1 | -2.6% |
| COc1ccc(NC(=O)C2C3CCC(C3)C2C(=O)O)c(OC)c1 (stereo not shown) | -3.12% |
| O=C1NC(=O)/C(=C\c2ccc(OCc3cccc(C(=O)O)c3)c(Cl)c2)N1 | -0.178% |
| Cc1ccc(S(=O)(=O)O)cc1 | -1.29% |
| COc1ccc(OC)c(CN2CCNCC2)c1 | 5.8% |
| CCCCN(CCCC)c1ncnc2sc3c(c12)CCCC3 | 3.7% |
| O=C(Nc1ccc(S(=O)(=O)Nc2nccs2)cc1)c1ccc(Br)o1 | 2.69% |
| CC(C)c1ccc(-c2c(C#N)c(N)nc3c2CCCCC3)cc1 | -6.22% |
| CCN(CC)C(=O)CSc1nc2c(c(=O)n(C)c(=O)n2C)n1Cc1ccccc1C | -5.51% |
| Cc1ccc(S(=O)(=O)N(CC(=O)N(C)C)c2ccc(Cl)cc2)cc1 | 0.851% and 1.19% |
| Nc1nnc2ccccc2n1 | 1.72% |
| CCCS(=O)(=O)N1CCC(C(=O)NCCN2CCC(Cc3ccccc3)CC2)CC1 | -1.79% |
| O=S(=O)(c1ccc(Cl)cc1)N1CCCc2ccccc21 | -1.62% |
| Cn1cc(Br)c(C(=O)Nc2sc3c(c2C(N)=O)CCC3)n1 | 1.02% |
| CC(=O)N1CC(c2ccccc2)CC1=O (stereo not shown) | 0.131% |
| O=S(=O)(c1ccc(-c2ccc(O)nn2)o1)N1CC=C(c2ccccc2)CC1 | -5.38% |
| O=C(Cn1ncc2c3ccccc3n(Cc3ccccc3)c2c1=O)NCc1ccco1 | -1.58% |
| COc1ccc(-c2cc(C(=O)Nc3ccc4c(c3)OCO4)c3ccccc3n2)c(OC)c1 | -11.5% |
| O=C(C1CCCN1S(=O)(=O)c1cccc2nsnc12)N1CCC(Cc2ccccc2)CC1 (stereo not shown) | -4.1% |

| SMILES | % Inhibition @ 10 uM |
| --- | --- |
| CN(C)CCCN1C(=O)C(O)=C(C(=O)c2ccc(S(=O)(=O)N(C)C)cc2)C1c1ccco1 (stereo not shown) | -3.06% |
| CC(C)OC(=O)/C(=C/c1ccco1)NC(=O)c1ccccc1 | -4.74% |
| O=C(CSCCO)Nc1nc(-c2ccc(Br)cc2)cs1 | -4.02% |
| COc1ccc(S(=O)(=O)NCCSCc2ccco2)c(Cl)c1Cl | 3.79% |
| O=C(COC(=O)c1ccccc1F)c1ccc(-n2nncc2-c2ccccc2)cc1 | -4.32% |
| CCOC(=O)N1CCN(Cc2nc3c(c(=O)n(C)c(=O)n3C)n2CC(=O)c2ccccc2)CC1 | -3.23% |
| CC(C)C[C@H](NC(=O)c1cc(F)cc(F)c1F)C(=O)NCC#N | -4.72% |
| COCCN1Cc2cccc(C(=O)NCc3ccc4c(c3)OCO4)c2C1=O | -0.499% |
| O=C(c1ccccc1)N1CCN(c2ncnc3c2oc2ccccc23)CC1 | -1.72% |
| O=C1NC(=O)C(=Cc2ccc([N+](=O)[O-])o2)C(=O)N1 | -2.81% |
| CCOCCCNC(=O)CCc1c(C)nc2c(c(C)nn2C)c1C | -4.24% |
| COc1cc2c(cc1OC)CN(S(=O)(=O)c1cccc(S(=O)(=O)N3CCOCC3)c1)CC2 | 3.88% |
| COc1ccccc1N(CC(=O)NCc1ccccn1)S(C)(=O)=O | 2.44% |
| COc1ccc(-c2nnc(NC(=O)C(C)(C)C)s2)cc1OC | -10% |
| Cc1nc(C)c(Cc2ccccc2Cl)c(O)n1 | -0.622% |
| CCOc1ccc2nc(N3CCC(C(=O)Nc4ccc(Cl)cn4)CC3)sc2c1 | 4.95% |
| COc1ccccc1C1C(C(=O)Nc2ccc(Cl)cc2)=C(C)Nc2nc(CCCO)nn21 (stereo not shown) | 0.528% |
| CC1CCCC(C)N1CCCNC(=O)C1CCCN(S(=O)(=O)N2CCC3(CC2)OCCO3)C1 (stereo not shown) | -2.26% |
| CN1C(C(=O)NCc2cccnc2)=CC(c2ccco2)=NS1(=O)=O | 5.48% |
| CCN(CC)S(=O)(=O)c1cc(C(=O)O)c(Cl)cc1Cl | 2.76% |
